Data published in ChEMBL document CHEMBL4888484, “Replenishing the malaria drug discovery pipeline: Screening and hit evaluation of the MMV Hit Generation Library 1 (HGL1) against asexual blood stage Plasmodium falciparum ,using a nano luciferase reporter read-out” (2022).
Hit rate of the full screen: of about 150,000 compounds, about 540 (0.36%) showed an effect of 50% or more. Some of the results follow.

Tested on: Plasmodium falciparum
Experiment: Primary screen in NF54 nanoGlo assay, in single point, at 2uM, 72h; a lower Z score goes with more inhibition
Assay type: functional, Erythrocyte
Details: timepoint 72 hour

Point of comparison: C[C@H](OC(=O)c1cccn1C)c1ccccn1, “% Inhibition” value -2%. Against it:
- COCCN1C[C@@H](Cc2cc(Cl)ccc2OC)CC1=O — lower, -20%
- O=C(NCCc1cccc(-c2ccccc2)c1)N1C2CCC1CC(O)C2 (stereo not drawn) — lower, -3%
- O=C(NCCn1ncccc1=O)c1ccc(OCc2nc(-c3ccco3)cs2)cc1 — lower, -4%
- CCCC[C@H](CC)C(=O)Nc1ccccc1C — higher, 36%
- Cc1cc(N2CCC[C@@H]2CO)c2ccccc2n1 — lower, -6%
- CCc1ccc(NC(=O)[C@H]2CCCN(c3nnc(N4CCCC4=O)s3)C2)cc1 — lower, -14%
- Cc1ccc(OS(=O)(=O)c2cccc(Cl)c2Cl)c(-c2nc3ncccc3o2)c1 — lower, -20%
- Cc1ccc(F)c(S(=O)(=O)N2CCC[C@H](Cn3cncn3)C2)c1 — higher, 2%
- C=CCCN(C)c1nnnn1CCC(=O)N1CCCCC1 — lower, -5%
- CCc1nnc(CN(C)Cc2ccnn2C)o1 — lower, -9%
- COCCCN/C(=N\S(C)(=O)=O)Nc1ccc(OC)c(OC)c1 — lower, -16%
- CC(C)n1[nH]c(=O)c2c(-c3ccc(C(=O)O)cc3)c3sc(=O)[nH]c3nc21 — lower, -19%
- C/C(=C\c1ccco1)CN[C@H]1CCCc2nc(-c3cccnc3)ncc21 — lower, -5%
- Cc1csc(-n2c(C)cc(C(=O)CN3CCCCC3)c2C)n1 — higher, 4%
- O=C(Cc1c[nH]c2cc(Cl)ccc12)NCCN1CCNCC1 — the same, -2%
- c1ccc(-c2nc3c([nH]2)CCc2nonc2-3)cc1 — lower, -36%
- CC(C)N(C)CC1CCN(C(=O)c2cc(-c3ccccc3)c(N3CCOCC3)s2)CC1 — higher, 41%
- Cc1ccc2c(c1)C[C@@H](C(=O)NCc1snnc1C)N2 — higher, 0%
- CS(=O)(=O)C[C@H]1CCN(C(=O)c2c[nH]c(C(F)(F)F)c2)C1 — lower, -4%
- CC(C)(C)C(=O)CNC(=O)c1ccncc1F — lower, -3%
- O=C(c1ccncc1)N1CCC(F)(C(=O)N2CCOCC2)CC1 — lower, -13%
- CNC(=O)CN1CCN(c2ccc(C#N)c(N3CCN(CC(=O)NC)CC3)n2)CC1 — lower, -12%
- Cc1cc(C)c(C(=O)N2CCC[C@H](Nc3ccc4c(c3)OCCO4)C2)c(=O)[nH]1 — lower, -9%

Point of comparison: CNC(=O)CN1CCN(c2ccc(C#N)c(N3CCN(CC(=O)NC)CC3)n2)CC1, Z score 2.21. Against it:
- COCCN1C[C@@H](Cc2cc(Cl)ccc2OC)CC1=O — lower, 1.74
- O=C(NCCc1cccc(-c2ccccc2)c1)N1C2CCC1CC(O)C2 (stereo not drawn) — lower, 0.56
- O=C(NCCn1ncccc1=O)c1ccc(OCc2nc(-c3ccco3)cs2)cc1 — lower, 0.81
- CCCC[C@H](CC)C(=O)Nc1ccccc1C — lower, -0.94
- Cc1cc(N2CCC[C@@H]2CO)c2ccccc2n1 — lower, 0.57
- CCc1ccc(NC(=O)[C@H]2CCCN(c3nnc(N4CCCC4=O)s3)C2)cc1 — higher, 2.53
- Cc1ccc(OS(=O)(=O)c2cccc(Cl)c2Cl)c(-c2nc3ncccc3o2)c1 — lower, 2.05
- Cc1ccc(F)c(S(=O)(=O)N2CCC[C@H](Cn3cncn3)C2)c1 — lower, -0.37
- C=CCCN(C)c1nnnn1CCC(=O)N1CCCCC1 — lower, 0.82
- CCc1nnc(CN(C)Cc2ccnn2C)o1 — lower, 0.94
- COCCCN/C(=N\S(C)(=O)=O)Nc1ccc(OC)c(OC)c1 — lower, 1.93
- CC(C)n1[nH]c(=O)c2c(-c3ccc(C(=O)O)cc3)c3sc(=O)[nH]c3nc21 — lower, 2.19
- C/C(=C\c1ccco1)CN[C@H]1CCCc2nc(-c3cccnc3)ncc21 — lower, 0.78
- C[C@H](OC(=O)c1cccn1C)c1ccccn1 — lower, 0.3
- Cc1csc(-n2c(C)cc(C(=O)CN3CCCCC3)c2C)n1 — lower, -0.58
- O=C(Cc1c[nH]c2cc(Cl)ccc12)NCCN1CCNCC1 — lower, 0.32
- c1ccc(-c2nc3c([nH]2)CCc2nonc2-3)cc1 — higher, 4.18
- CC(C)N(C)CC1CCN(C(=O)c2cc(-c3ccccc3)c(N3CCOCC3)s2)CC1 — lower, -5.52
- Cc1ccc2c(c1)C[C@@H](C(=O)NCc1snnc1C)N2 — lower, -0.03
- CS(=O)(=O)C[C@H]1CCN(C(=O)c2c[nH]c(C(F)(F)F)c2)C1 — lower, 0.89
- CC(C)(C)C(=O)CNC(=O)c1ccncc1F — lower, 0.39
- O=C(c1ccncc1)N1CCC(F)(C(=O)N2CCOCC2)CC1 — lower, 1.65
- Cc1cc(C)c(C(=O)N2CCC[C@H](Nc3ccc4c(c3)OCCO4)C2)c(=O)[nH]1 — lower, 1.25
